Test results taken from the BET-seq Pho4 binding data (Le et al. 2018).
This is one part of the list. These are noisy estimates, calculated here from bound and input reads.

Target: T1, Pho4 (S. cerevisiae) (UniProt P07270)
T1 sequence: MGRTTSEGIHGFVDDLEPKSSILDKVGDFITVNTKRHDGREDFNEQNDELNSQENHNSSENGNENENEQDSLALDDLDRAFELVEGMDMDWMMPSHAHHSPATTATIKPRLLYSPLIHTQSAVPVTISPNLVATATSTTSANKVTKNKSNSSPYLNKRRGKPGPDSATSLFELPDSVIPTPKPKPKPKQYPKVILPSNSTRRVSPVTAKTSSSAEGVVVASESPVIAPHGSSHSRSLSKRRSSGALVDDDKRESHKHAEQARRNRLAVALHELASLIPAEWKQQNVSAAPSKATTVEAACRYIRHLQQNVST
Test: relative binding free energy (BET-seq); higher = weaker binding
Conditions: reference: library average

Sequence	relative binding free energy
AGAGTCACGTGTGTGA	0.15 kcal/mol
AGCGTCACGTGGTAGT	-0.13 kcal/mol
TGCAACACGTGATGGT	0.13 kcal/mol
ACAGACACGTGAGGGG	0.2 kcal/mol
GCTTGCACGTGTTATG	0.13 kcal/mol
GTTGTCACGTGAGAGG	0.34 kcal/mol
ATTTACACGTGGATTG	0.01 kcal/mol
CGTGGCACGTGGCGTG	-0.22 kcal/mol
TATTGCACGTGAGAGG	-0.01 kcal/mol
TCGGACACGTGGTTTG	-0.01 kcal/mol
GTTATCACGTGGTGAA	0.11 kcal/mol
GACGACACGTGTAGGT	0.09 kcal/mol
GCGGTCACGTGAAGGA	0.34 kcal/mol
GGAAGCACGTGAGGGA	0.06 kcal/mol
AAGTACACGTGCGGTG	0.1 kcal/mol
TAATGCACGTGCGGGG	0 kcal/mol
GTTTTCACGTGATCGG	0.49 kcal/mol
AGTGTCACGTGGCGGC	-0.01 kcal/mol
GTAGTCACGTGGCGGC	0.18 kcal/mol
TGTAACACGTGGGAAT	0.09 kcal/mol
TTCATCACGTGATTTT	0.17 kcal/mol
AGTATCACGTGAGTGT	0.22 kcal/mol
GGTAACACGTGATGTG	0.27 kcal/mol

Sequence	relative binding free energy
GAATTCACGTGTGTTG	0.18 kcal/mol
TATGTCACGTGTAGGG	0.22 kcal/mol
CGGATCACGTGACGGG	0.49 kcal/mol
TTTTTCACGTGGTCTT	0.24 kcal/mol
GGTAACACGTGACGTG	0.33 kcal/mol
TGGAGCACGTGGACTG	-0.04 kcal/mol
GGTGCCACGTGGGATG	-0.12 kcal/mol
TGTGCCACGTGAGGTG	0.13 kcal/mol
CGAGGCACGTGGTTTA	-0.15 kcal/mol
AGTGACACGTGTTATC	0.06 kcal/mol
ATGTACACGTGGTGCA	-0.02 kcal/mol
GGCTACACGTGTGTGG	0.07 kcal/mol
CGTGGCACGTGAGTTA	0.08 kcal/mol
GTTGGCACGTGTTCAC	0.08 kcal/mol
TGAATCACGTGTCGGG	0.13 kcal/mol
TGACTCACGTGTTTGT	0.16 kcal/mol
GATGTCACGTGTTGGA	0.07 kcal/mol
AGGAGCACGTGACTGG	0 kcal/mol
GTTGACACGTGTAAAG	0.13 kcal/mol
GTGCCCACGTGGGGGG	-0.25 kcal/mol
TTGATCACGTGAATGA	0.52 kcal/mol
GGGTGCACGTGAGGTA	0.13 kcal/mol
TTGTGCACGTGCGATA	-0.14 kcal/mol

Sequence	relative binding free energy
TAATGCACGTGCGTGG	-0.21 kcal/mol
GGGTTCACGTGAGATT	0.49 kcal/mol
GATTACACGTGTGCTT	0.1 kcal/mol
TGTCTCACGTGGGTGG	0.06 kcal/mol
ACGGGCACGTGGGTTG	-0.28 kcal/mol
AGTAGCACGTGATCTG	0.02 kcal/mol
CAGGTCACGTGTTAGA	0.12 kcal/mol
TTTTTCACGTGTCAGC	0.36 kcal/mol
TTTGGCACGTGGAACT	0.08 kcal/mol
GCAAACACGTGTGGTT	0.12 kcal/mol
GTGGTCACGTGGAAGG	0.15 kcal/mol
GGAATCACGTGTTGTG	0.15 kcal/mol
AATGCCACGTGTGGTT	0.03 kcal/mol
TAGTACACGTGCTGTT	0 kcal/mol
TTTTTCACGTGATGTA	0.34 kcal/mol
TGTTTCACGTGAAGGC	0.31 kcal/mol
TCTTTCACGTGCGAGG	0.36 kcal/mol
CTAGGCACGTGGTGCG	-0.28 kcal/mol
TGTTTCACGTGGGCGA	0.16 kcal/mol
ATTGTCACGTGGATAA	0.19 kcal/mol
TATTGCACGTGACTGG	0 kcal/mol
TATAACACGTGAGGCG	0.26 kcal/mol
GTCAGCACGTGTGTAT	-0.01 kcal/mol

Sequence	relative binding free energy
CGTGACACGTGTCGGG	-0.1 kcal/mol
TGTAACACGTGGTGGC	-0.11 kcal/mol
GGTCTCACGTGTGCGT	0.2 kcal/mol
GGAATCACGTGAGTGT	0.4 kcal/mol
GCGTACACGTGATTGG	0.26 kcal/mol
CGATTCACGTGTGATG	0.29 kcal/mol
GTAGTCACGTGCTGAT	0.06 kcal/mol
GGTGCCACGTGTTGGC	0 kcal/mol
GGTATCACGTGTGAAT	0.29 kcal/mol
GTGCACACGTGGGGTA	-0.14 kcal/mol
TGGGTCACGTGCTTTT	0.03 kcal/mol
TTAAGCACGTGTATGG	0.02 kcal/mol
GTTGACACGTGTATGA	0.07 kcal/mol
TTTGACACGTGTTTAC	0.16 kcal/mol
TGGGGCACGTGTGCGA	-0.22 kcal/mol
TGTGTCACGTGGTCTA	0.08 kcal/mol
GCTTACACGTGTGTTG	0.19 kcal/mol
TTATACACGTGATTTT	0.28 kcal/mol
TTGCTCACGTGGGTGC	0.03 kcal/mol
TTCTTCACGTGTGGGC	0.21 kcal/mol
ATAGACACGTGTTTAT	0.19 kcal/mol
AGTTGCACGTGGGTAA	-0.13 kcal/mol
GGGGGCACGTGGGTCC	-0.17 kcal/mol

Sequence	relative binding free energy
TTCAACACGTGGTGTG	-0.05 kcal/mol
GGGCTCACGTGGGGGG	0.06 kcal/mol
TTCTGCACGTGTTTGC	0.04 kcal/mol
TTGAGCACGTGTGAGT	-0.03 kcal/mol
TATTACACGTGAGTGC	0.29 kcal/mol
TTCTTCACGTGACGTT	0.42 kcal/mol
GGTTACACGTGTCATA	0.09 kcal/mol
TGGTTCACGTGTTGCC	0.24 kcal/mol
ATATGCACGTGGGAGA	-0.15 kcal/mol
TTCGTCACGTGTTAGA	0.12 kcal/mol
AGGGGCACGTGCATGT	-0.24 kcal/mol
GGCTGCACGTGGGAGG	-0.06 kcal/mol
TTGTTCACGTGTCATG	0.33 kcal/mol
GGCGACACGTGAGTTT	0.34 kcal/mol
GAGGGCACGTGCTGGC	0.02 kcal/mol
ATGGTCACGTGCGAAG	0.29 kcal/mol
TATTTCACGTGGCCGG	0.16 kcal/mol
GTTGGCACGTGACGTG	0.21 kcal/mol
TAGGTCACGTGGTTTC	0.12 kcal/mol
TGACTCACGTGTTTAA	0.33 kcal/mol
CATGACACGTGGTTTG	-0.05 kcal/mol
AGTGTCACGTGTATGT	0.01 kcal/mol
GTAGTCACGTGTATAA	0.14 kcal/mol
